The values that follow come from patent EP2791141B1, “Tofacitinib mono-tartrate salt” (ratiopharm GmbH, priority 2011, dated 2013).

Values after ≈ are worked out from the molar mass of the structure shown. Values joined by “and” are separate entries in the source; they are usually repeats but may differ in a detail not shown here. Equal entries are not always repeated. Structures can show the parent of a compound that is named as a salt.

One series can be described thus: physchem. The following applies: thermodynamic from solid.

Broadly, the solubility is the concentration that dissolves in the medium under given conditions.

In the series “physchem” (0.1 N HCl, pH 1.2, simulated gastric fluid, solubility pH 1.2, 0.1 N HCl (pH 1.2), stirred 1 h at room temperature, filtered, HPLC-UV 290 nm, quantified as Tofacitinib), `C[C@@H]1CCN(C(=O)CC#N)C[C@@H]1N(C)c1ncnc2[nH]ccc12` [TOF base, 3-{(3R,4R)-4-methyl-3-[methyl-(7H-pyrrolo[2,3-d]pyrimidin-4-yl)-amino]-piperidin-1-yl} 3-oxo-propionitrile, reference compound] returned a solubility at 1 h of 36.7 mg/mL (≈ 117 mM). Further, under “20 mM sodium acetate (pH 4.5), stirred 1 h at room temperature, filtered, HPLC-UV 290 nm, quantified as Tofacitinib”, the “solubility pH 4.5” value is 6,9 mg/ml. The “solubility pH 6.8” value (50 mM potassium dihydrogen phosphate (pH 6.8), stirred 1 h at room temperature, filtered, HPLC-UV 290 nm, quantified as Tofacitinib) is given as 2,1 mg/ml.

On to `C[C@@H]1CCN(C(=O)CC#N)C[C@@H]1N(C)c1ncnc2[nH]ccc12` [TOF-citrate, Tofacitinib citrate, reference compound], for which the “solubility pH 1.2” value (0.1 N HCl (pH 1.2), stirred 1 h at room temperature, filtered, HPLC-UV 290 nm, quantified as Tofacitinib) is 29,4 mg/ml and 29,7 mg/ml.

For the compound `C[C@@H]1CCN(C(=O)CC#N)C[C@@H]1N(C)c1ncnc2[nH]ccc12` [TOF-tartrate, Tofacitinib mono-tartrate], the solubility at 1 h in the series “physchem” (0.1 n hcl, pH 1.2, simulated gastric fluid) was 381 mg/mL (≈ 1220 mM); in “physchem” (20 mm sodium acetate, pH 4.5, aqueous buffer) it was 324 mg/mL (≈ 1040 mM). Further, under “250 mg salt in 2.5 ml solvent (pH 1.2, 4.5, 6.8), clear solution means saturation not yet achieved”, the “appearance of the mixture in the first solubility experiment” value is “clear solutions”.
